# Data published in article PMC10668032.
# This is one part of the list. At the low end of the ranking, values are background and their order means little.
# Biological target: SIX1 homeodomain (reference allele) (UniProt Q15475)
# Assay: universal protein binding microarray
# Conditions: Universal all-10-mer PBM (8x60K, AMADID 030236), 300 nM GST-tagged protein, Alexa Fluor 488 anti-GST; buffer, salt, pH and temperature not stated; high values mean tight binding; most listed sequences are background and not binding sites; double strand, one strand shown
row,Sequence,binding signal [E-score]
1,GCATGCCA,-0.0427
2,CAATAAAC,-0.176
3,GTGACTTA,-0.227
4,AATCAGGC,-0.0947
5,CAATGGTC,-0.0567
6,CTCTACGA,0.0161
7,CGTGTCGC,0.128
8,CAGTATCA,0.465
9,ACCGTAAG,-0.0762
10,GGCGATAC,0.444
11,ATGAAGAG,-0.035
12,GGACTTCA,-0.029
13,TGAATGAA,-0.0556
14,CATAGTAG,0.0964
15,ACATCCCT,0.0532
16,GCGCTATA,0.0517
17,GTTGAAAC,-0.0597
18,TGAGTCCA,-0.154
19,AGAGCGCC,-0.233
20,AGCTCTGG,-0.173
21,CGGCCCTC,0.0553
22,ATGGGGCC,-0.249
23,AGTTGACA,-0.0934
24,ATACTTGA,0.222
25,AAACGACG,-0.219

row,Sequence,binding signal [E-score]
1,AAACCCGC,-0.00726
2,ATTGGCAC,0.118
3,TATACTGA,0.239
4,ACGTGAGA,0.0501
5,ATGTTGGC,-0.198
6,ACAACAAG,-0.159
7,TAAAGCGA,0.0724
8,CTCTCAGA,-0.19
9,ATGTGCTA,-0.133
10,CGGAACAG,-0.163
11,AGATAATC,0.143
12,AACATCGT,-0.0978
13,CTAACAGC,-0.122
14,GCTAAATA,0.00109
15,CGGCTACA,-0.023
16,CCAGCTAC,-0.0267
17,CATCTACA,0.12
18,GTTTCACA,-0.101
19,AGGAATAG,-0.0926
20,CGAAACCG,0.0879
21,AAGTAAGT,-0.28
22,GTGGACGA,-0.248
23,AACCGGAT,0.316
24,AAGGACTG,-0.244
25,ATCCGGTG,0.405

row,Sequence,binding signal [E-score]
1,GTGTCCGA,0.217
2,AAGGGGTC,-0.0918
3,ATCCCGAC,0.238
4,CTAGGGGA,0.0877
5,GATGGCTA,0.114
6,GCCCCTCA,-0.108
7,AGAGAACA,-0.0918
8,GTTCGTTA,-0.0719
9,CGCATGCC,-0.126
10,ACGATCGT,0.154
11,ACCCTATC,0.346
12,GACTCATC,-0.162
13,CGTGAGCA,-0.117
14,CATTACGC,-0.144
15,CGTAGGAA,-0.0608
16,ACTGACGA,-0.108
17,GTGGCGTA,0.0738
18,ACTATGGA,-0.0209
19,CAACAGGG,-0.0556
20,GAGCCGGA,0.166
21,GGCGGCAC,-0.143
22,TATCTACA,0.167
23,CCGGCGGC,-0.142
24,CATCACCG,0.000455
25,GGTTTTTA,-0.122

row,Sequence,binding signal [E-score]
1,CATGGGGA,0.0843
2,GACTAGCC,-0.193
3,GCGCAGCA,-0.317
4,CGCTTAAG,-0.00293
5,ACAAGCGT,-0.00636
6,TCGCGCAA,-0.0849
7,AGCCTATC,0.192
8,CTATAACC,0.0761
9,CCAGCACA,-0.123
10,GAATGGGA,-0.0835
11,ACAGATTA,0.0542
12,AATACAAC,0.0249
13,CCTGCGGC,0.078
14,CAAAACCA,0.0298
15,ACAGATGC,-0.184
16,GATAACAA,0.0842
17,ATGTAACG,0.0966
18,GAGTTATC,0.248
19,ATTTAAAC,0.0992
20,CGCAAAGA,-0.18
21,AGAGGGCG,-0.123
22,CGGTGGTA,0.11
23,ACAGCTCT,-0.231
24,ATAAAAGA,0.0264
25,ATAACCAA,-0.214

row,Sequence,binding signal [E-score]
1,CAATGGAC,-0.259
2,GGGTTTAA,0.0886
3,CTCTTCGC,-0.142
4,AAGTTAAC,-0.131
5,AGACGTTA,-0.102
6,CGTAACAG,-0.146
7,GGTAAGCA,-0.155
8,ACTCGAGT,-0.191
9,AGAATCCT,-0.142
10,GCCACGAA,-0.268
11,CAAGACAG,-0.109
12,CGGTTGAA,0.046
13,AAACAGGA,-0.0702
14,CCTCTGGC,-0.158
15,AAAGAGAG,-0.324
16,CTTCTATA,0.0648
17,TAACGAAA,-0.095
18,GGCCTGTA,-0.163
19,CTTACCCA,-0.0884
20,TCTTATCA,-0.0217
21,TGCGCAAA,-0.233
22,AGGTTACT,0.111
23,AAGCACGG,-0.146
24,CAGACATA,0.0948
25,GGCGAGCC,-0.0846

row,Sequence,binding signal [E-score]
1,ATAAACAT,-0.0904
2,AGTCAATA,0.111
3,GTGCCCCA,-0.0235
4,GGCTTGAA,-0.113
5,ACCTAATC,0.0389
6,ATACATTG,0.218
7,ATGTGTTC,-0.222
8,ACTTTAGA,-0.0391
9,ATAGAATG,0.0796
10,AGAGCAGC,-0.255
11,CCGTGTCC,-0.0358
12,ACCAAAAA,-0.0603
13,CAGGAGAC,-0.069
14,CCAGCCGG,-0.0219
15,AGGCATTG,-0.254
16,GCATGGGA,-0.00959
17,ACCTTAGC,-0.103
18,AAGCGTTG,-0.22
19,ATAAACTC,-0.0649
20,CAAGATCG,0.168
21,CCACATGC,-0.0369
22,CTACAGCA,-0.0682
23,AAAATCCG,0.175
24,GATAGAAC,0.0184
25,CGCTACCA,-0.276

row,Sequence,binding signal [E-score]
1,ATGATTTC,-0.187
2,AAGATAAG,0.115
3,ACATATGG,0.0813
4,GGTGCAGA,0.0756
5,CCCCTTCA,-0.146
6,ACCTAGCG,-0.0893
7,ATTGGCCG,-0.201
8,ACAGCCTA,-0.119
9,GCGTATAC,0.295
10,ACGAGCAT,-0.0614
11,GAGTCATC,-0.0135
12,AGGGTCAC,-0.0511
13,CTACGTGA,-0.0784
14,CTCTTGTC,-0.0196
15,GCATACCC,0.289
16,GTTGGGTA,0.0847
17,ACATAACG,-0.128
18,GAGCCGCA,-0.23
19,CCTGTAGC,-0.271
20,AAGAGAGT,-0.326
21,ACCCCAGG,0.122
22,CTCCACTC,-0.126
